# Screen size: about 380,000 compounds; about 170 (0.045%) were called active. Inconclusive means that the source gave no clear call. Such entries were picked first, then a sample of the others. The call rests on the fitted dose curve; in most records, active means well fitted inhibition curve with a large enough effect; inconclusive means small, poorly fitted or top-dose-only effect; inactive means no such curve, though single readings can be large or run the other way. No potency is given beside an inconclusive call; the fits are too rough.
# Biological target: Phosphoglycerate kinase, glycosomal (Trypanosoma brucei brucei) (UniProt P07378)
# Test: qHTS Assay to Find Inhibitors of Phosphoglycerate Kinase; further: nearly all actives have a fitted effect of over 60% in size
# Details: PGK/GAPDH coupled, Kinase-Glo luminescence, 60 min; series mostly up to 57.5 µM; activity change, negative = inhibition: at the top concentration
# Method in brief: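 Luminescent ATP detection (Kinase-Glo Plus) follows a 60-minute room-temperature incubation, with wells lacking PGK as controls. Buffer: 100 mM TEA (pH 7.6), 5 mM MgCl2, 0.01% Tween-20. Coupling enzyme GAPDH (100 nM final) supplies unstable 1,3-BPG in-well.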
# On the % scale 0 is the no-effect control and ±100 the full control effect; potency means the concentration at half of the fitted maximal effect; tags describe the fitted curve by direction and shape.
SMILES,Potency,"activity change, negative = inhibition"
Cc1nc(-c2ccc(NC(=O)c3cccs3)cc2)cs1,"inconclusive [inhibitor, partial curve, poor fit]",–
CCOc1c(Br)cc(C2CC(=O)Nc3cc4c(cc32)OCO4)cc1OC (centres undefined),–,inactive: -7.77%
CCCCCCCCCCCCCCCC[n+]1ccccc1,inactive,–
COc1ccccc1Cn1c(=S)[nH]c2ccccc2c1=O,–,inactive: -3.31%
O=C(Nc1ncc([N+](=O)[O-])s1)c1cccs1,"inconclusive [inhibitor, partial curve, poor fit]",–
CN1C(=O)C(N=Nc2ccc([N+](=O)[O-])cc2)SC1=S (centres undefined),"inconclusive [inhibitor, partial curve, poor fit]",–
CN1\C(=C/C=C/C=C/C=[N+](C)C)C(C)(C)c2ccccc21,"inconclusive [inhibitor, partial curve]",–
CC(=O)SC(C[N+](=O)[O-])c1cn(C(C)=O)c2ccccc12 (centres undefined),–,inactive: 10%
Cc1sc(-c2cc3c([nH]c2=O)CC(c2ccccc2)CC3=O)nc1-c1ccc(Cl)cc1 (centres undefined),–,inactive: -4.29%
Cc1nc2oc3ccc(Cl)cc3c(=O)c2cc1C(=O)O,"inconclusive [inhibitor, partial curve, poor fit]",–
O=C1C(c2ccccc2)=[N+]([O-])c2ccccc21,–,inactive: -8.14%
N=C1/C(=C\c2ccc(-c3cccc(C(=O)O)c3)o2)C(=O)N=C2SC=C(c3ccccc3)N12,"inconclusive [inhibitor, single point]",–
CC/C(C)=N/Nc1nc2c(c(=O)[nH]c(=O)n2C)n1Cc1ccccc1,"inconclusive [inhibitor, single point]",–
COc1cc(/C=C2\C(=O)N(c3ccc(S(N)(=O)=O)cc3)N=C2C)ccc1OC(=O)c1ccco1,"inconclusive [inhibitor, partial curve]",–
O=C1C=C(c2ccc3cc[nH]c3c2)C[C@@H](c2ccc3c(c2)OCO3)C1,"inconclusive [inhibitor, partial curve]",–
Cc1ccc2c(c1)c1c(c(=O)n(-c3ccccc3C)c(=O)n1CC(=O)c1ccc(Cl)cc1)n2C,–,inactive: -0.773%
Cc1cccc(Nc2nc(N)nc(N)c2N=O)c1,–,inactive: -5.38%
O=C(CCc1n[nH]c(=O)[nH]c1=O)N/N=C/c1ccco1,"inconclusive [inhibitor, partial curve, poor fit]",–
COc1ccc(NC(=O)C2CCN(S(=O)(=O)c3c(C)noc3/C=C/c3ccco3)CC2)cc1,"inconclusive [inhibitor, partial curve, poor fit]",–
